Measurements from the supplement of paper PMC12645437, “Orthogonal IMiD-Degron Pairs Induce Selective Protein Degradation in Cells” (ACS Chemical Biology, 2025).
The other results are listed elsewhere or left out.

Biological target: no compound (DMSO)
Assay: log2 fold change of degron read counts, EGFP-low vs EGFP+ sorted cells; higher = lower degron-EGFP level without compound (poor expression or instability)
Conditions: compound: DMSO control; 18 h
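Note: jurkat cells carrying a lentiviral library of mutant zinc finger degrons fused to EGFP plus mCherry, mCherry+ cells FACS sorted, degron abundance counted by next-generation sequencing.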

Row | Sequence | log2 fold change of degron read counts
1 | FFCPVCGATFTQKGNLLRHIKL | -0.396
2 | FECEVCGAKFTQKGNLLRHIKL | -1.73
3 | FQCPQCGAWFTQKGNLLRHIKL | -0.124
4 | FSCPVCGAEFTQKGNLLRHIKL | -0.789
5 | FVCEICGACFTQKGNLLRHIKL | -1.37
6 | FECNQCGRNFTQKGNLLRHIKL | -0.705
7 | FVCEICGRSFTQKGNLLRHIKL | -2.2
8 | FNCDICGAHFTQKGNLLRHIKL | -1.04
9 | FWCPVCGAPFTQKGNLLRHIKL | 1.13
10 | LVCEICGFECTQKGNLLRHIKL | -1.24
11 | FCCEICGRIFTQKGNLLRHIKL | -0.275
12 | FKCNQCGAKFTQKGNLLRHIKL | -1.17
13 | LRCPICGFACTQKGNLLRHIKL | 1.19
14 | FGCEQCGAGFTQKGNLLRHIKL | -0.783
15 | FVCPVCGALFTQKGNLLRHIKL | 0.266
16 | FCCEICGRWFTQKGNLLRHIKL | -0.143
17 | FGCNVCGAQFTQKGNLLRHIKL | -1.07
18 | FGCPICGAAFTQKGNLLRHIKL | 0.0544
19 | FVCDVCGAIFTQKGNLLRHIKL | -1.1
20 | FFCEICGHKFTQKGNLLRHIKL | -0.867
21 | FGCPICGALFTQKGNLLRHIKL | 0.113
22 | FFCEVCGAHFTQKGNLLRHIKL | -1.08
23 | FHCEICGRGFTQKGNLLRHIKL | -0.791
24 | FWCDICGARFTQKGNLLRHIKL | -0.0623
25 | LGCNQCGFRCTQKGNLLRHIKL | 2.17

Row | Sequence | log2 fold change of degron read counts
26 | FYCPICGASFTQKGNLLRHIKL | -0.263
27 | FDCPICGADFTQKGNLLRHIKL | -1.14
28 | LVCNQCGFQCTQKGNLLRHIKL | -0.242
29 | FHCSVCGHKFTQKGNLLRHIKL | -1.01
30 | FYCNQCGHYFTQKGNLLRHIKL | 0.974
31 | FECNVCGAGFTQKGNLLRHIKL | -2.33
32 | LFCEICGFTCTQKGNLLRHIKL | 0.148
33 | FECEQCGAAFTQKGNLLRHIKL | -1.73
34 | FCCNQCGRKFTQKGNLLRHIKL | -0.13
35 | FFCEICGHFFTQKGNLLRHIKL | 0.75
36 | FECPICGHFFTQKGNLLRHIKL | -0.521
37 | FQCPQCGARFTQKGNLLRHIKL | -0.998
38 | FDCNQCGRTFTQKGNLLRHIKL | -0.349
39 | FVCDQCGACFTQKGNLLRHIKL | -1.28
40 | FKCEQCGAIFTQKGNLLRHIKL | -0.636
41 | LQCNQCGFKCTQKGNLLRHIKL | 0.228
42 | LWCEICGFDCTQKGNLLRHIKL | 0.895
43 | LSCNQCGFYCTQKGNLLRHIKL | 1.55
44 | FYCNVCGAAFTQKGNLLRHIKL | -0.746
45 | FICPICGHKFTQKGNLLRHIKL | -1.4
46 | FFCEICGAWFTQKGNLLRHIKL | 0.408
47 | FQCEQCGAMFTQKGNLLRHIKL | -2.04
48 | LDCNQCGFTCTQKGNLLRHIKL | 0.644
49 | FQCEQCGAVFTQKGNLLRHIKL | -2.33
50 | FGCDVCGAQFTQKGNLLRHIKL | -1.27
